Measurements: PubChem BioAssay (NCI)
Several values for one entry are separate records, joined by “and”; a condition that tells them apart may be missing. Equal entries are not always repeated.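 Briefly, cells in 96-well plates were exposed to five compound concentrations for 48 h, and endpoints were estimated by linear interpolation. Here, GI50 denotes the concentration required for 50% inhibition of growth. TGI is the concentration that stops growth completely.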 Peptide text beside a SMILES is read from it. * marks the point of attachment. Ethyl(2-NMe3+) = C[N+](C)(C)CC*; Boc = CC(C)(C)OC(=O)*

System: NCI-H322M lung
Test: NCI-60 cell line screen, 48 h

| Structure (SMILES) | GI50 | TGI |
| --- | --- | --- |
| Nc1nc(N)c2c(n1)NC(c1ccc(F)cc1)C1CCc3ccccc3C1=N2 (stereo not drawn) | 9.63 µM | 21.8 µM |
| COc1ccc2c(c1)Oc1cc(O)ccc1[C@@H]2c1ccccc1C(=O)NC(C)c1ccccc1 (stereo partly drawn) | – | 29.6 µM |
| O=C(Cc1ccc(Cl)cc1)Nc1ccc2oc(-c3ccccc3)nc2c1 | – | > 100 µM |
| CC(C)(C)OC(=O)NC(CCC(=O)OCc1ccccc1)C(=O)NCCCO (stereo not drawn) | – | > 100 µM |
| COC(=O)C1CCCN1C(=O)[C@@H]1CCCN1C(=O)[C@H](Cc1c[nH]c2ccccc12)NC(=S)Nc1cc(C(F)(F)F)cc(C(F)(F)F)c1 (stereo partly drawn) | 4.38 µM | 17.2 µM |
| CN1CCCOC(c2ccc([N+](=O)[O-])cc2)O1 (stereo not drawn) | – | > 100 µM |
| O=C(O)c1cc(-c2ccncc2)nc2ccccc12 | – | > 100 µM |
| COc1ccc(C2=NN(C(N)=S)C(c3ccccc3)C2)cc1 (stereo not drawn) | – | > 100 µM |
| CC(NC(=O)C(Cc1ccc(OCC[N+](C)(C)C)cc1)NC(=O)OC(C)(C)C)C(=O)NC(Cc1ccccc1)C(=O)NCC(N)=O (stereo not drawn) (Boc-Y(Ethyl(2-NMe3+))AFG-NH2; configuration not given here) | – | 51.2 µM |
| Clc1ccc2nnnn2n1 | 9.23 µM | 30.3 µM |
| Cc1ccc(NC(=O)C(=O)CC(=O)c2c(C)n([O-])c3ccccc3[n+]2=O)cc1 | – | 57.9 µM |
| Cn1c(Cl)cn2c3nc4ccccc4nc3c(=O)c(C#N)c12 | – | > 100 µM |
| COC(=O)NC12CC3CC(CC(F)(C3)C1)C2 | – | > 100 µM |
| CC(NCCC(=O)N(CCC(=O)N(CCC(=O)N(CCC(=O)N(CCC(=O)N(CCC(=O)N(CCC(=O)N(CCC(=O)N(CCC(=O)N(CCC(=O)O)[C@H](C)c1ccccc1)[C@H](C)c1ccccc1)[C@H](C)c1ccccc1)[C@H](C)c1ccccc1)[C@H](C)c1ccccc1)[C@H](C)c1ccccc1)[C@H](C)c1ccccc1)[C@H](C)c1ccccc1)[C@H](C)c1ccccc1)c1ccccc1 (stereo partly drawn) | 10.3 µM | > 75 µM |
| COC(=O)C(Cc1ccc(Oc2cc(CC(NC(=O)c3ccccc3)C(=O)OC)ccc2OC)cc1)NC(=O)c1ccccc1 (stereo not drawn) | – | 79.8 µM |
| CC(C)(C)c1ccc(-n2c3nc(=O)n(-c4ccccc4CO)c(=O)c-3cc3ccccc32)cc1 | – | > 100 µM |
| OC1[C@H](O)CN(OCc2ccccc2)C[C@@H]1O (stereo partly drawn) | – | > 100 µM |
| CC1OC(OC2C(OC(=O)[C@@H]3CC(C)(C)C[C@@H]4C5=CC[C@@H]6[C@@]7(C)C[C@H](O)[C@H](OC8OC(CO)C(O)C(O)C8O)[C@@](C)(CO)C7[C@H](O)C[C@@]6(C)[C@]5(C)C[C@@H](O)[C@H]43)OCC(O)C2O)C(O)C(O)C1O (stereo partly drawn) | – | > 15 µM |
| C[N+]1(C)C/C(=C\c2ccccc2)C(=O)/C(=C/c2ccccc2)C1 | – | > 100 µM |
| Oc1cc(-c2ccc(Cl)cc2)cn2c1nc1ccccc12 | – | > 100 µM |
| c1ccc2cc3[s+]snc3cc2c1 | – | > 100 µM |
| Nc1c(C(=O)Nc2ccc(C3=NCCN3)cc2)cccc1C(=O)Nc1ccc(C2=NCCN2)cc1 | – | > 100 µM |
| O=P1(c2ccccc2)C(c2ccccc2)=CC=C1c1ccccc1 | – | > 100 µM |

| Structure (SMILES) | GI50 | TGI |
| --- | --- | --- |
| COc1cccc(N2C(=O)/C(=C\c3ccccc3)SC2c2cc(OC)c(OC)c(OC)c2)c1 (stereo not drawn) | – | > 100 µM |
| CC1(O)CC(c2nc(-c3ccc4ccc(-c5ccccc5)nc4c3)c3c(N)nccn23)C1 (stereo not drawn) | 2.25 µM and 1.86 µM | > 100 µM |
| CN(Cc1cccc2ccccc12)Cc1cccc2ccccc12 | – | > 100 µM |
| COc1cc(C(O)C(=O)c2nc3ccc([N+](=O)[O-])cc3[nH]c2=O)ccc1O (stereo not drawn) | – | > 100 µM |
| FC(F)(F)c1ccc(C#Cc2ccccc2C#Cc2ccccc2)cc1 | 86.2 µM | > 100 µM |
| Cc1sc2nc(-c3ccc([N+](=O)[O-])cc3)c(/C=N/N=C(N)N)n2c1C | – | 2.73 µM |
| Oc1ccccc1C=Nc1nc(SCc2ccccc2)nc2[nH]ncc12 | 3.39 µM | > 100 µM |
| COc1ccc(CC(=O)NCCc2ccc(OC)c(OC)c2)cc1Br | – | > 100 µM |
| NCCN.NCCN.O=C([O-])CCl.O=C([O-])CCl.[Co+3].[O-][Cl+3]([O-])([O-])[O-] | > 100 µM | > 100 µM |
| Cc1cc(=O)[nH]c2cc3c(c4c(n3Cc3ccc(Cl)cc3Cl)CC(C)(C)CC4=O)c(O)c12 | > 100 µM | > 100 µM |
| COc1cc([C@H]2CC(=O)C[C@H](c3cc(OC)c(OC)c(OC)c3)C23C(=O)c2ccccc2C3=O)cc(OC)c1OC | – | > 100 µM |
| COc1cccc(-c2nc3ccccc3c(=O)[nH]2)c1OC | – | > 100 µM |
| C/C=C1/CCC2c3[nH]c4ccccc4c3CCN2C1 (stereo not drawn) | – | > 100 µM |
| O=C1C=CC[C@H](/C=C/c2ccccc2)O1 | 3.84 µM | > 72.8 µM |
| Cc1c(C(=O)CC(=O)C(=O)Nc2ccc(Cl)cc2)[n+](=O)c2ccccc2n1[O-] | – | > 100 µM |
| OC(CNCC1CCCO1)Cn1c2ccc(Cl)cc2c2cc(Cl)ccc21 (stereo not drawn) | 2.5 µM | 7.17 µM |
| Fc1ccccc1C1SCc2nc3ccccc3n21 (stereo not drawn) | – | > 100 µM |
| O=C1C2C(c3ccccc3)NC(c3ccccc3)C1C(c1ccccc1)NC2c1ccccc1 (stereo not drawn) | – | > 100 µM |
| NC1CC(Cl)c2c(Cl)sc(Cl)c21 (stereo not drawn) | – | > 100 µM |
| CN(C(=O)C1CCCCCC1=O)c1ccccc1Cl (stereo not drawn) | – | > 100 µM |
| Cc1c(Cl)c(S(N)(=O)=O)cc2c1NC=NS2(=O)=O | – | > 100 µM |
| COc1ccccc1N1CCN(CCc2c[nH]c3cc4c(cc23)OCO4)CC1 | 23.3 µM | > 100 µM |
| Oc1[nH]c2c(Br)cccc2c1C1=Nc2ccccc2/C1=N/OCCN1CCCC1 | 0.943 µM | – |
